# Measurements published in the supplement of paper PMC3334620.
# In all, about 33,000 sequences were measured (“E-score (-0.5 to 0.5)”: median about -0.011, highest 2% from about 0.28 on). Some of the results follow.
# Biological target: T1, Gcr1 (UniProt P07261)
# T1 sequence: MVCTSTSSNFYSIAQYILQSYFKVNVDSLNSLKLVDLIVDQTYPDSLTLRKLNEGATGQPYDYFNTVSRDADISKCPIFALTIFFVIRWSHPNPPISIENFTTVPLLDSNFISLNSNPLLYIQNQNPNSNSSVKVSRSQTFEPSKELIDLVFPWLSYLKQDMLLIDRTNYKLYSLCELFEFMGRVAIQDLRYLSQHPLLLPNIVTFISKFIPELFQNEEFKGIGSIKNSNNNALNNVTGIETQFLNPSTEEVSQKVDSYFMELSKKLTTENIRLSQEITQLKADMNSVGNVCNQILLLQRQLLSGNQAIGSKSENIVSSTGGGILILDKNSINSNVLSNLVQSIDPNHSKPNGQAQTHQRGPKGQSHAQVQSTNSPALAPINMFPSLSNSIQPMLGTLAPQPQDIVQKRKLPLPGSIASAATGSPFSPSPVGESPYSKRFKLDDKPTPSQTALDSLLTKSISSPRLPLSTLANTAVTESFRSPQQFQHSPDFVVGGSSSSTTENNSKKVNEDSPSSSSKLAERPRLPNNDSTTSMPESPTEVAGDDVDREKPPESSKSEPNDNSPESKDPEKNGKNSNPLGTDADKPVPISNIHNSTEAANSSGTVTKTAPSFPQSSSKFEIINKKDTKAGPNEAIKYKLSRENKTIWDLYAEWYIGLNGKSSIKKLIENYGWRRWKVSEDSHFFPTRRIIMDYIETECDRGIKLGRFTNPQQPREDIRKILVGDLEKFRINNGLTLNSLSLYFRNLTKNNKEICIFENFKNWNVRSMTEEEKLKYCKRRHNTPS
# Experiment: PBM E-score (8-mer binding enrichment) (E-score (-0.5 to 0.5)); higher = stronger / more preferred TF binding; most listed sequences are background and not binding sites
# Conditions: protein concentration: 100 nM; construct: GST-full length
# How it was run: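 Bound GST-tagged yeast transcription factors, applied at about 100-200 nM to double-stranded universal all-10-mer Agilent arrays, were detected with fluorescent anti-GST. Scans were normalised with masliner. A modified Wilcoxon-Mann-Whitney statistic, the E-score, was assigned to each ungapped eight-base word pooled with its reverse complement by the Universal PBM Analysis Suite.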
row,Sequence,PBM E-score
1,AAGGGTTA,-0.133
2,AAATAATT,0.101
3,GCGCCCCC,0.258
4,CCGTCGAG,-0.149
5,ATTTTGCG,0.074
6,ATGTTTAA,-0.129
7,AGAGAACG,-0.111
8,ATACTGTC,-0.136
9,CTCCTGCA,0.0118
10,AGGCGCGC,0.16
11,AGAAGTCA,0.241
12,CGTGCCAC,-0.141
13,GCTTTCAA,0.152
14,CGTGTTAA,-0.033
15,GGCACACA,-0.078
16,CATCCGAG,-0.0298
17,CGGCTACG,-0.0174
18,ACAAAGGG,-0.176
19,GAGTCTAA,-0.123
20,CGACAGAA,0.0495
21,AGCGTGGA,-0.0942
22,GGGGTAAC,-0.00738
23,CGGTTCAA,-0.14
24,GGAGCTCA,-0.0475
25,ACAGGCTC,-0.0762

row,Sequence,PBM E-score
1,ATTGCTAG,-0.207
2,AACATCGA,-0.224
3,AGTCCTTA,0.0231
4,CCGTTAAA,-0.127
5,CTCAGAAC,0.107
6,CACAGCCG,-0.114
7,GCCAGGGA,-0.11
8,ATCACAAA,0.131
9,GACGCTGC,0.332
10,GCCAATGA,-0.11
11,AGTTACCC,0.0602
12,CTACCAAC,-0.0781
13,CTTACCGC,-0.176
14,AGACGCAG,0.0695
15,ACTCAACA,0.122
16,GGACCGCA,0.0179
17,CGTGAGGA,0.0116
18,ACCCTAGA,-0.00655
19,CAGTTTTA,-0.00954
20,ACTAAAGA,0.072
21,CGACGTAG,-0.171
22,GCTTATCC,-0.114
23,CAATTCGA,0.0308
24,ATGTACAG,-0.0683
25,CTTCAAAG,0.0604

row,Sequence,PBM E-score
1,ATCAGGAT,0.146
2,CAGTCCAC,-0.25
3,CCAGGTAG,-0.129
4,CCAAAGGA,0.152
5,ACATCAAA,0.0265
6,ACAACCCT,-0.127
7,ATTTGAAA,0.114
8,ACCGTACG,-0.0822
9,GGATCGAC,-0.219
10,AGAATTTC,0.00643
11,ATCCGGTA,-0.00288
12,ATCCGGAT,0.286
13,AGAGATGC,-0.0199
14,ATGTCCAG,0.00743
15,AACTGCAT,0.0434
16,TGACGCAA,-0.0285
17,GGCAGAGA,-0.0152
18,AATATAAG,0.269
19,CCAGCTTA,-0.0932
20,AATACTGT,0.0108
21,AACCTGAT,-0.0454
22,CACCGGCG,-0.0102
23,AGAAGTTG,0.178
24,AGTGGGGG,0.0679
25,ATGGAGCC,0.147

row,Sequence,PBM E-score
1,TAATGTGA,-0.00916
2,CAATCCTC,-0.0209
3,ACGAATCA,0.0358
4,CGGCCATC,-0.181
5,AATATGCT,-0.222
6,AAGCACTG,-0.136
7,GTACCTGA,0.0766
8,TATAAGCA,0.224
9,CTGTGGAC,-0.19
10,CCCCGGGC,-0.0664
11,GTAGTTCA,-0.0548
12,CAAGGCAC,-0.251
13,CCGTTTGC,-0.0164
14,GAGGACTC,0.00276
15,AGATATTG,0.0179
16,AACTCCTA,0.101
17,CGGATCGA,-0.231
18,ACACGGTG,0.0672
19,GGCGCTAC,0.136
20,AAAGGCGA,-0.127
21,ACGACCAT,-0.0983
22,CCACGGTC,-0.246
23,ATTCAGGC,0.126
24,CCAACCCA,0.0305
25,AGGTCAAT,-0.0492

row,Sequence,PBM E-score
1,GGCAGCTA,0.318
2,AGAGCGTC,0.083
3,GTGCATCA,-0.0272
4,AACGTGAG,-0.0937
5,AAGGCAGG,-0.154
6,CGGACCCA,0.105
7,AATATTCT,0.15
8,CAGAACTG,0.0975
9,AGCGGTAT,0.104
10,CTATATAA,0.117
11,CAGCCAAC,0.0336
12,CGGTGTGC,-0.0713
13,ACGGCTTG,-0.02
14,ATTCCTAG,-0.0289
15,CACGCCGC,0.151
16,CGCCGACA,-0.0683
17,AGCGTGTC,-0.166
18,ACTTCTAC,0.169
19,TATCTGGA,0.203
20,GGTTGAGA,-0.068
21,TAAAAAAA,0.104
22,ACTGTACA,-0.221
23,TCCTGACA,-0.00277
24,CTATATGA,0.0534
25,CCTCCGGC,0.12

row,Sequence,PBM E-score
1,ACCAGGAT,0.194
2,ACACCAAT,-0.121
3,ACTGACCA,-0.162
4,ATGGCGGC,0.0606
5,AAACCTAT,-0.031
6,GCAATTAC,-0.123
7,TAATCAAA,0.09
8,CAATAAGG,0.0654
9,CAAGTGCA,-0.183
10,AATTACAC,-0.115
11,ATCGTATA,0.0593
12,ATTATAGG,0.256
13,AAACCAAC,0.0391
14,GCAGATCA,-0.0971
15,CCTCTACG,0.0211
16,ATACATTG,-0.0543
17,ATGTAGGC,0.103
18,AGGCGGAA,-0.0378
19,GGGCGGTA,-0.208
20,TCGCACAA,-0.269
21,AGGCAACA,-0.00605
22,CTACTTCA,-0.0149
23,CGCACCAC,-0.0633
24,ATAAGTGG,0.199
25,AACGTGCG,-0.0468

row,Sequence,PBM E-score
1,TCGCTGAA,-0.126
2,GGGTATAC,-0.133
3,CACCTTCG,-0.164
4,CGAATTAG,0.0525
5,GCGGACTA,-0.12
6,AGCGGGCG,0.0749
7,CAGCCATC,-0.139
8,ATACTACG,0.0226
9,CTTATTGA,0.0361
10,GACCCAGC,-0.215
11,CTATCCGC,-0.207
12,ACCACTTA,0.117
13,GCAGGAGA,0.00708
14,CAGGTCGG,-0.0991
15,GCAAGGAA,-0.0181
16,AGGCTTAG,-0.158
17,AATTAAAC,0.0787
18,CACGAATA,0.0879
19,CAAAGTAC,-0.0222
20,AGATTCTA,0.141
21,GCGTCTAC,0.268
22,ACCCGTAT,0.0462
